Data reported in PMC7242078.
These are yes or no findings as the source states them, for the method shown. For some of these results: Binding seen in cells or lysates may run through a third protein. Some results given as binding are weak or reduced against the parent protein; the word gives no strength. For some of these results: Where a sequence is shown, tags or fusion partners need not be part of it.

Chains of the proteins cited; added tags and fusions are not shown.
UniProt O81445: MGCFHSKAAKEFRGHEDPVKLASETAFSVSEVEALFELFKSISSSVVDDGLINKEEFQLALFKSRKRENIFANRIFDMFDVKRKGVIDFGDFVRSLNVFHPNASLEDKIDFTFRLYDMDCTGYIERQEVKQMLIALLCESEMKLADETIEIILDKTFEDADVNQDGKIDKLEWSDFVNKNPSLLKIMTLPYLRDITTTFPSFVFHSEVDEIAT
UniProt Q7FRS8: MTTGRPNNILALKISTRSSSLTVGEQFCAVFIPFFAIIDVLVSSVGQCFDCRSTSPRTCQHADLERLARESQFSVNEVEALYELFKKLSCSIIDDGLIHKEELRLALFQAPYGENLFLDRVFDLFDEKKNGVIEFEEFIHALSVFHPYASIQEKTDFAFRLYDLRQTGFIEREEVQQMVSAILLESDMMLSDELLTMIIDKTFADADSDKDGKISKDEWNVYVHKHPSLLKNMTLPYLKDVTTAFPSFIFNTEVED
UniProt Q9C5P6: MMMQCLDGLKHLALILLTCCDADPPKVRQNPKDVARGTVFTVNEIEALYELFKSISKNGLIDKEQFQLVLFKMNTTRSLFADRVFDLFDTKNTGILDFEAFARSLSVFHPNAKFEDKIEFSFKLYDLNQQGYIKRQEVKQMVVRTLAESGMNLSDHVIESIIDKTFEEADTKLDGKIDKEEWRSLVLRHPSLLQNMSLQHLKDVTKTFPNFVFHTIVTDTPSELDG
UniProt Q9LTB8: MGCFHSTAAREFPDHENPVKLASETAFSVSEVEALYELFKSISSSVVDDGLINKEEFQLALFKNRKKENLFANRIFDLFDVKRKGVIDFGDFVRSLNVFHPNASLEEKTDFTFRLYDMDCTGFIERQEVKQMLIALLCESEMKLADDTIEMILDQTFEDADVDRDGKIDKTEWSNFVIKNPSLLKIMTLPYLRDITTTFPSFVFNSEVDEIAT
UniProt Q9SUA6: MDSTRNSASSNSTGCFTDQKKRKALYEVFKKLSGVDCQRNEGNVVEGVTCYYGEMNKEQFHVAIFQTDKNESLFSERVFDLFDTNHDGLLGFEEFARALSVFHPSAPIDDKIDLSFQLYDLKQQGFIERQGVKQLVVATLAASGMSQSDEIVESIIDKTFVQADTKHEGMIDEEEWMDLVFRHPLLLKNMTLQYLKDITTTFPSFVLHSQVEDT
UniProt O81223: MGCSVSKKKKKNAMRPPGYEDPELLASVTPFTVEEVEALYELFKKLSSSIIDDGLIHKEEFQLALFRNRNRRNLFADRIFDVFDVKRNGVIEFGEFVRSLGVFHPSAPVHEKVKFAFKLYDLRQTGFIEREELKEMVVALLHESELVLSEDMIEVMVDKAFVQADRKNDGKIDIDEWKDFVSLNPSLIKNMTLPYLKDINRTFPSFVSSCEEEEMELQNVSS

Target: T1, CIPK8 luciferase-fragment fusion (pCAMBIA1300-cLUC, primers CIPK8-cLUC-F/R) (Arabidopsis) (UniProt Q9STV4)
T1 sequence: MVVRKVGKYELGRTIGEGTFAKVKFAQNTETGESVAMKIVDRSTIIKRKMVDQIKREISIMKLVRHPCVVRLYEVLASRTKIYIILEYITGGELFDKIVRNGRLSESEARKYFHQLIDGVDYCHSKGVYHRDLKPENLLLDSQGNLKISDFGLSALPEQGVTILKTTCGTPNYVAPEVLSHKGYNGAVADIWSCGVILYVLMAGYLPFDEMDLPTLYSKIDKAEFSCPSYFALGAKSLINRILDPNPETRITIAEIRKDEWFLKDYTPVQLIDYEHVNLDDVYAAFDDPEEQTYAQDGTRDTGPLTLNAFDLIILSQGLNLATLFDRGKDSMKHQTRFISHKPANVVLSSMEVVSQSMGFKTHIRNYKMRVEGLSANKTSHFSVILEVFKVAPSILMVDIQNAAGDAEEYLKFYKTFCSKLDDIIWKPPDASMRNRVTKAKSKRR
Assay: split reporter; Split-LUC in tobacco leaf cells; data not shown

| Substance | binding |
| --- | --- |
| CBL1 in the Split-LUC assay (from UniProt O81445 1-213) | binds |

Target: T1, CIPK8 luciferase-fragment fusion (pCAMBIA1300-cLUC, primers CIPK8-cLUC-F/R) (Arabidopsis)
Assay: split reporter; Split-LUC (firefly luciferase complementation imaging) in Nicotiana benthamiana leaves, agroinfiltrated, imaged after 2 d, 10 min exposure; nLUC and cLUC fusions

| Substance | binding |
| --- | --- |
| CBL10 luciferase-fragment fusion (pCAMBIA1300-nLUC, primers CBL10-nLUC-F/R) (from UniProt Q7FRS8 1-256) | binds |

Target: T2, CBL-interacting protein kinase 8 (pGBKT7-CIPK8) (Arabidopsis) (UniProt Q9STV4)
T2 sequence: T1 sequence
Assay: two-hybrid; MatchMaker yeast two-hybrid system (Clontech), Y2HGold yeast co-transformed with pGBKT7-CIPK8 and pGADT7-CBLs; growth on QDO/X/A (lacking Leu, Ade, His and Trp, with 40 ug/ml X-alpha-Gal and 125 ng/ml aureobasidin A)

| Substance | binding |
| --- | --- |
| Calcineurin B-like protein 6 (pGADT7-CBL6) (from UniProt Q9C5P6 1-226) | no binding |
| Calcineurin B-like protein 9 (pGADT7-CBL9) (from UniProt Q9LTB8 1-213) | no binding |
| Calcineurin B-like protein 10 (pGADT7-CBL10) (from UniProt Q7FRS8 1-256) | binds |
| Calcineurin B-like protein 3 (pGADT7-CBL3) (from UniProt Q8LEM7 1-226) | no binding |
| Calcineurin B-like protein 1 (pGADT7-CBL1) (from UniProt O81445 1-213) | binds |
| Calcineurin B-like protein 7 (pGADT7-CBL7) (from UniProt Q9SUA6 1-214) | no binding |
| Calcineurin B-like protein 2 (pGADT7-CBL2) (from UniProt Q8LAS7 1-226) | no binding |
| SOS3, also known as Calcineurin B-like 4 (pGADT7 fusion) (from UniProt O81223 1-222) | no binding |
